Experimental data from the supplement of paper PMC9174493.
This is one part of the list. Single values of this set are uncertain. Values with irradiation are relative to irradiated vehicle.

How the values were obtained:
A549-Dual [1] = assay: NF-kB reporter (SEAP) activity, viability-corrected, relative to vehicle (fold change vs vehicle); higher = more activation of STING-IRF / NF-kB immune response reporter
A549-Dual [2] = assay: ISRE reporter (Lucia luciferase) activity, viability-corrected, relative to vehicle (fold change vs vehicle); higher = more activation of STING-IRF / NF-kB immune response reporter
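Wherever NF-kB reporter (SEAP) activity, viability-corrected, relative to vehicle is given: viability correction based on the alamar blue assay, with concentrations leaving 10% survival or less dropped.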

SMILES	NF-kB reporter (A549-Dual [1]; 0.1 µM, irradiation: 8 Gy/4 fr)	NF-kB reporter (A549-Dual [1]; 0.1 µM, irradiation: none)	NF-kB reporter (A549-Dual [1]; 0.3 µM, irradiation: 8 Gy/4 fr)	NF-kB reporter (A549-Dual [1]; 0.3 µM, irradiation: none)	NF-kB reporter (A549-Dual [1]; 1 µM, irradiation: 8 Gy/4 fr)	NF-kB reporter (A549-Dual [1]; 1 µM, irradiation: none)	NF-kB reporter (A549-Dual [1]; 3 µM, irradiation: 8 Gy/4 fr)	NF-kB reporter (A549-Dual [1]; 3 µM, irradiation: none)	NF-kB reporter (A549-Dual [1]; 10 µM, irradiation: 8 Gy/4 fr)	NF-kB reporter (A549-Dual [1]; 10 µM, irradiation: none)	ISRE reporter (A549-Dual [2]; 0.1 µM, irradiation: 8 Gy/4 fr)	ISRE reporter (A549-Dual [2]; 0.1 µM, irradiation: none)	ISRE reporter (A549-Dual [2]; 0.3 µM, irradiation: 8 Gy/4 fr)	ISRE reporter (A549-Dual [2]; 0.3 µM, irradiation: none)	ISRE reporter (A549-Dual [2]; 1 µM, irradiation: 8 Gy/4 fr)	ISRE reporter (A549-Dual [2]; 1 µM, irradiation: none)	ISRE reporter (A549-Dual [2]; 3 µM, irradiation: 8 Gy/4 fr)	ISRE reporter (A549-Dual [2]; 3 µM, irradiation: none)	ISRE reporter (A549-Dual [2]; 10 µM, irradiation: 8 Gy/4 fr)	ISRE reporter (A549-Dual [2]; 10 µM, irradiation: none)
Cc1nnc(C(C)C)n1C1CC2CCC(C1)N2CCC(NC(=O)C1CCC(F)(F)CC1)c1ccccc1 (stereo not given) [Maraviroc]	1.02	1.92	1.37	2.15	1.82	1.54	2.04	1.36	1.62	1	1.15	1.53	1.11	1.4	1.13	1.25	1.2	1.44	1.35	0.795
CC1=NN(c2ccc(C)c(C)c2)C(=O)/C1=N\Nc1cccc(-c2cccc(C(=O)O)c2)c1O.NCCO.NCCO [Eltrombopag Olamine]	0.947	1.14	1.02	1.04	0.955	1.34	0.859	1.24	0.925	1.11	0.995	0.895	0.889	0.734	0.887	0.703	0.709	0.536	0.753	0.663
O=C1Nc2ccccc2/C1=C1\Nc2ccccc2C1=O [Indirubin]	1.33	1.42	1.02	1.54	0.964	1.91	0.952	1.4	0.857	1.29	0.966	0.772	0.749	0.628	0.716	0.858	0.298	0.309	0.302	0.407
CCOc1cc(C(CS(C)(=O)=O)N2C(=O)c3cccc(NC(C)=O)c3C2=O)ccc1OC (stereo not given)	0.874	1.12	0.878	1.05	1.16	0.879	1.22	0.984	0.704	0.442	0.922	1.12	0.837	0.931	1	0.926	0.711	0.825	0.754	0.796
O=c1oc2cc(O)ccc2s1 [Tioxolone]	0.771	1.12	0.806	1.06	0.891	0.953	1.08	1.03	0.752	0.933	0.896	0.934	0.812	0.76	0.615	0.79	0.814	0.941	0.571	0.69
COc1cc(-c2coc3cc4c(c(OC)c3c2=O)OCO4)cc(OC)c1OC [Irisflorentin]	1.08	0.992	1.23	0.826	1.12	0.885	1.16	0.869	0.802	1.25	1.1	0.739	1.02	0.576	0.682	0.608	0.814	0.82	0.592	0.666
NC(CCC(=O)NC(CS)C(=O)NCC(=O)O)C(=O)O (stereo not given) [Glutathione]	1.06	1.07	1.05	0.938	0.989	0.834	0.895	1.07	0.909	0.971	1.02	0.979	0.957	0.743	0.902	0.881	0.921	0.925	0.972	0.812
NCCc1c[nH]cn1 [Histamine]	1.11	1.28	1.22	1.19	1.23	0.983	1.55	0.973	1.04	1.03	1.05	1.17	1.04	1.15	1.06	1.19	0.98	1.22	1.24	1.07
CC(C)(O)CNc1nc(Nc2ccnc(C(F)(F)F)c2)nc(-c2cccc(C(F)(F)F)n2)n1 [Enasidenib (AG-221)]	0.921	0.899	0.835	1.18	0.904	1.5	0.838	1.08	0.718	0.886	0.918	1.12	0.801	1.08	0.803	1.32	0.822	1.01	0.822	0.859
CNC(=O)c1cc(Oc2ccc(NC(=O)Nc3ccc(Cl)c(C(F)(F)F)c3)cc2)ccn1 [Sorafenib]	0.91	0.884	0.817	0.881	0.881	0.845	0.669	1.03	0.761	0.932	0.821	1.07	0.786	0.932	0.79	0.786	0.395	0.645	0.447	0.769
Cc1c(O)c(C)c2c(c1O)C(=O)CC(c1ccc(O)cc1)O2 (stereo not given) [Farrerol]	0.948	0.8	0.889	0.743	0.924	0.8	1.1	0.816	0.769	0.967	0.922	0.778	0.813	0.662	0.698	0.753	0.787	0.78	0.659	0.85
c1cc(CN2CCCNCCNCCCNCC2)ccc1CN1CCCNCCNCCCNCC1 [Plerixafor (AMD3100)]	1.36	0.968	1.31	1	0.796	0.909	1.03	0.938	1.05	1.45	1.1	1.27	1.08	1.04	1.23	1.07	1.2	1.21	1.05	0.954
O=C(O)c1ccccc1O.[NaH] [Sodium salicylate]	0.833	1.11	0.849	1.39	1.12	0.846	0.932	0.966	0.882	0.864	0.946	0.857	0.78	0.872	0.774	0.832	0.79	0.928	0.852	0.876
COc1nc2ccc(Br)cc2cc1C(c1ccccc1)C(O)(CCN(C)C)c1cccc2ccccc12 (stereo not given) [Bedaquiline]	1.07	2.03	1.32	1.71	1.36	1.3	1.85	1.29	1	0.943	1.09	1.89	1.11	1.27	1.21	1.34	1.15	1.31	1.41	1.3
CC(=O)C1CCC2C3CC(C)C4=CC(=O)CCC4(C)C3C(O)CC12C (stereo not given) [Medrysone]	0.782	0.884	0.793	0.836	0.875	0.755	0.826	0.811	0.609	1.05	0.162	0.336	0.194	0.4	0.0817	0.25	0.101	0.305	0.0556	0.236
O=C(CCCc1ccccc1)[O][Na] [Sodium Phenylbutyrate]	1.01	1.14	1.01	0.944	0.917	1.44	0.965	1.23	1.05	1.01	1.15	1.36	1.23	1.06	1.23	1.19	1.29	0.982	1.28	1.07
COc1ccc2cc1Oc1ccc(cc1)CC1c3cc(c(OC)cc3CCN1C)Oc1c(O)c(OC)cc3c1C(C2)N(C)CC3 (stereo not given) [Fangchinoline]	1.32	1.21	1.1	1.74	1.06	2	1.22	1.47	1.04	1.24	1.25	1.23	1.41	1.77	1.39	1.73	1.51	2.05	1.46	3.56
CC(N)c1ccc(C(=O)Nc2ccnc3[nH]ccc23)cc1.Cl.Cl (stereo not given)	0.696	0.916	0.653	0.759	0.877	1.17	1.22	0.781	0.629	1.28	0.48	0.828	0.552	0.678	0.181	0.674	0.444	0.694	0.0865	0.465
O=C([O-])Cc1ccccc1Nc1c(Cl)cccc1Cl.[K+] [Diclofenac Potassium]	0.811	1.02	0.843	1.18	1.04	0.814	0.882	0.943	0.808	0.761	0.901	0.742	0.785	0.852	0.711	0.726	0.739	1.06	0.8	0.749
Clc1ccc(C(c2ccccc2Cl)C(Cl)Cl)cc1 (stereo not given) [Mitotane]	0.874	0.93	0.935	1.07	0.792	0.945	0.906	0.929	0.96	0.949	0.885	0.781	0.864	1.02	0.822	0.962	0.939	0.833	0.914	0.83
CC1=C(CC(=O)O)c2cc(F)ccc2/C1=C\c1ccc(S(C)=O)cc1 (stereo not given) [Sulindac]	0.871	0.913	0.891	0.901	0.796	0.907	0.941	0.885	0.967	1.04	1.06	0.968	1.04	0.985	0.849	0.89	0.902	0.66	1.02	1.08
C=C1CCC2C(C)(COC(=O)CCC(=O)O)C(OC(=O)CCC(=O)O)CCC2(C)C1/C=C/C1=CCOC1=O (stereo not given) [Dehydroandrographolide Succinate]	0.938	0.719	0.965	0.638	0.889	0.722	0.843	0.872	0.787	0.901	0.9	0.848	0.889	0.703	0.787	0.72	0.863	0.874	0.867	0.824
CC(=O)OCC(=O)C1(O)CCC2C3CCC4=CC(=O)CCC4(C)C3(F)C(O)CC21C (stereo not given) [Fludrocortisone acetate]	0.591	0.887	0.776	0.981	1.11	0.784	0.57	0.821	0.534	0.823	0.0955	0.285	0.11	0.369	0.0591	0.217	0.062	0.198	0.0582	0.257
COC(=O)c1cc(OC)c2c(c1-c1c(C(=O)OC)cc(OC)c3c1OCO3)OCO2 [Bifendate]	0.802	1.23	0.842	1.08	0.744	1.11	1.04	0.752	0.943	0.735	0.826	1.21	0.819	0.989	0.766	0.983	1.11	0.903	1.02	0.656
